Reference: the supplement of paper PMC3334620
Whole data set: some 33,000 sequences, median “E-score (-0.5 to 0.5)” near -0.016, cut for the highest 2% near 0.32. This is one part of the list.

Each sequence was assayed against T1, Stp1 (UniProt B3LFK1) (assay: PBM E-score (8-mer binding enrichment) (E-score (-0.5 to 0.5)); higher = stronger / more preferred TF binding; most listed sequences are background and not binding sites). Details: protein concentration: 200 nM; construct: GST-full length.
T1 sequence: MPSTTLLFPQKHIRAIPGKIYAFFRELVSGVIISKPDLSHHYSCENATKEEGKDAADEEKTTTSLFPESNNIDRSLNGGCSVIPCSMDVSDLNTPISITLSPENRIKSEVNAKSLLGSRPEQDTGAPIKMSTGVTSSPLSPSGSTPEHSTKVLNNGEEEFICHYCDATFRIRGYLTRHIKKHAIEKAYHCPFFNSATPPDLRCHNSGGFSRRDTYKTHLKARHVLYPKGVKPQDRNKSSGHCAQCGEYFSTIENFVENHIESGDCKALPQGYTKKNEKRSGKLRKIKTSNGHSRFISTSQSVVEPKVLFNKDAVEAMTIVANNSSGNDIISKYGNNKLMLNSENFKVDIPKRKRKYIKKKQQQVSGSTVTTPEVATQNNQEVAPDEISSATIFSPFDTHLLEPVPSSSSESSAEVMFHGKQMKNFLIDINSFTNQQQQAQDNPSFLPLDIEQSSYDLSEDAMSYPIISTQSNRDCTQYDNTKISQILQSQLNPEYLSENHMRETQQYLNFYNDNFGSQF
Description: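 Universal 'all 10-mer' protein binding microarrays (Agilent AMADID 015681) probed with GST-tagged S. cerevisiae TFs (full-length or DBD) made by in vitro transcription/translation (PURExpress), about 100-200 nM. Bound TF was detected with fluorescent anti-GST. Each ungapped 8-mer (which stands for itself and its reverse complement) is scored by the PBM enrichment score (E-score), a modified Wilcoxon-Mann-Whitney statistic from -0.5 to +0.5, computed with the Universal PBM Analysis Suite. Scale: above 0.35 generally sequence-specific binding.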

Sequence	PBM E-score
ACCAAGGC	0.0919
CGCAAACG	0.202
CAAACCGG	-0.213
AGCAGGTA	-0.239
GTATAGAC	-0.0238
CCTATGTA	-0.117
CGATTCAA	0.0102
GCCACAAA	0.138
ACGAATCT	-0.0452
CAGACCGA	-0.0215
CTTGATCA	-0.00807
AAGGTCCC	-0.32
ACGGTAAC	0.0643
GCTCTGAA	0.0165
ATCCGGGA	-0.147
AGTGTCCG	0.0985
ATAGTCAC	0.0242
AGGATATC	0.084
CTCTACAC	-0.0754
ACCAGGTC	-0.234
AGACGAAC	0.00641
GGGCTCAC	-0.333
CATGTGGA	0.0109
ATCACACC	-0.146
AGCCTGAG	-0.156

Sequence	PBM E-score
CAGTTTTC	0.118
AGACAACC	0.0513
AATGTCAA	-0.0648
ATGCACAG	-0.118
CAGTCAAC	-0.139
AAAACAGG	-0.122
GGTCGGAA	-0.232
AGGACGTA	-0.245
CGATATGA	0.0106
GTAAGTGA	0.00308
ACTTGCTA	-0.131
ACAGGTTC	-0.138
CGATACCG	-0.087
AAGTAGGA	0.0589
CCCATCGA	-0.142
AGCAGCCC	-0.114
ACATAAAG	0.0197
GGGCTCTA	-0.0132
TATGCAGA	-0.0394
CATTAAGA	-0.0282
CATATTAC	0.0683
AATTACTA	0.0643
CCTTACGC	0.215
ACCCCCGT	-0.247
AATTGCTA	-0.00568

Sequence	PBM E-score
CTCCTCCC	-0.294
ATGAGTCG	-0.114
GACAGCTA	-0.157
AAACCAAG	0.24
ATTCTGGG	-0.201
CCCGCGGA	0.0756
AGACTCGC	-0.0934
ACGGGGCA	0.232
AATGCTGG	-0.115
AAGATACG	0.132
CGCATAAG	0.146
CATACTCC	-0.134
AGTTGCTG	0.0498
GCTGAAAC	0.0696
ATGCGGCC	0.331
GTCAGACA	-0.0208
GGAGACGA	0.072
CCCTTGCA	-0.163
GCCATGAA	0.0613
CATACGCG	0.133
ATACCAAC	0.0864
AATTGCTG	0.223
ACACGGCT	0.458
CTTCCGAA	0.0442
AGGACACA	0.194

Sequence	PBM E-score
GATGACGA	0.0124
TCCTAAAA	0.108
CACCAGAA	-0.101
GATCGTTA	-0.235
CCAGGCGA	-0.333
ATCAGCTG	0.16
CCAATGAC	-0.0281
TAACCCCA	-0.336
GCATCGAC	0.0997
CGGCCACC	0.0334
ATACACAG	-0.0396
GGGTTATA	-0.274
CATAAAGC	-0.0593
AGGAATAC	-0.126
TGGGGCAA	-0.00868
GCGGTCGA	-0.00151
CGGGTATC	-0.0414
TTAGGAAA	0.0994
AAGCTCCA	-0.181
ACCGGCCC	-0.239
CTAGAAGA	-0.0697
CGCCAGAA	0.0143
CATTCCAA	0.00793
ATAGCATC	-0.246
AATTTCGC	0.182

Sequence	PBM E-score
GATCCGGA	-0.028
ATATTTAG	0.285
CCCACGTA	-0.182
AGTCATGC	-0.0428
CCGTACGA	0.298
CCGGCCGC	-0.018
CAGGACAA	0.0438
GAAAATCA	0.0528
AAAAAAGG	-0.0327
CTGAAATC	-0.0485
CTCTAGGA	-0.188
ACAGTGTC	-0.0275
TGTCAAAA	0.132
ATTTTGGA	0.14
CACTTCCC	-0.00571
AATTGTAT	-0.0583
ACACTCAG	-0.0774
AGGAAATA	0.163
CTTCACCA	-0.129
GTTGTGTA	0.0351
CCTTTGCG	0.0542
AATTCTAT	0.00783
GGCCCGTA	-0.0728
ACTGAATC	-0.0944
GAGTCGTA	-0.114

Sequence	PBM E-score
AGCCCTGA	-0.242
AGGAATCA	0.0117
GTCTGTGA	-0.0363
AGTACTGC	-0.127
ATGTGCTG	0.0902
AGGAACCA	-0.0186
TCTAACAA	-0.0699
TCCCGGCA	-0.223
CCAATCAC	-0.036
CAAGAAAG	0.139
CCACCCCC	-0.417
CTTGTATA	0.131
CTCAATTA	0.0547
CGACACGA	0.119
AACGAAGC	-0.0297
CCAACGTC	-0.176
CCTTCTCC	-0.221
AGGCAGTC	-0.00564
GGTCCGCA	0.0875
ATCCTCAT	-0.126
ACCTGCAT	0.0821
CTAATAAG	0.0778
CGCATACC	0.173
AGGCGTAA	0.151
AAGGCATG	0.158

Sequence	PBM E-score
AAACCTGT	-0.155
ACATATTC	0.131
CAGACGGA	0.0941
ACTAGCAT	-0.069
ACCCTCCA	-0.199
AACGGGCT	-0.293
GGTGATTA	0.0978
AATCGGCC	-0.0295
CCGATCCA	-0.0288
AGCAACCG	-0.174
CATCAGGG	-0.169
CAAGTACA	-0.0267
CACGCTGG	-0.0359
CTGACTTC	-0.147
GGCCCCAC	-0.248
GAGTCGCA	-0.232
CAGGTGAG	-0.358
GGCAATGA	0.115
AAAGTTTC	0.0638
AGGTTGAC	-0.223
AAGGATTA	-0.103
GTACATTA	0.127
CTAGTTAC	-0.035
ATCAGACA	-0.029
AACTTGCG	0.106

Sequence	PBM E-score
AATTTGCA	-0.0371
GCGTAACA	0.0464
CCCATGGC	-0.0564
GTCAAACA	-0.0809
AGGGATAT	-0.19
CAGGGGCA	-0.0911
CTCCTTCA	-0.288
AGTTTGTG	0.0255
CTCATGAA	0.192
ATAAACAA	0.199
AATTTAAC	0.185
CACACTAC	-0.0876
ATCCACGG	0.222
GTCCCGTA	0.0409
CATGTGCC	0.222
CCGTATCC	0.316
TTAAAAAA	0.248
GTAGCATA	0.0457
ATTATTCG	0.202
ACCCCGTG	0.236
CCGCTGGA	0.0272
CGTAATAC	0.186
CGAGCGAG	0.107
GTAAGGAA	0.0126
GGCCGGCC	-0.111

Sequence	PBM E-score
ACACCCTC	-0.347
ATGCGACA	0.149
GCGAACGA	0.0326
CTTCTGCA	0.0733
GGCAGCAA	0.179
AATCCCGG	-0.203
CTTGCGGC	0.272
CTCCAGGC	-0.162
GAATCTGA	-0.0474
TCACACAA	-0.0391
AACGCACG	0.36
ACAATTTA	0.121
AGACGTCA	-0.158
AACTCGGA	-0.0249
CTTTCCAA	0.181
AAGCACAT	0.0405
AAGATGTC	-0.112
AATCGTGT	0.0905
CACGAGCC	-0.0433
